Reference: the supplement of paper PMC10369915
The list shows a part of the results. Cut-off read from the data, not from the text of the source: active = 3.2 or more and inactive = the rest. The signal is at background level for most entries.

B1: PLD2_Y580 (peptide)
chain: TPTYPYLLPKS
B2: PLEKHG2_Y489_P484L (peptide)
chain: LVKDPYVMFPQ
B3: PLEC_Y2967 (peptide)
chain: PVDVAYRRGYF
B4: PLD2_Y573_YF (peptide)
chain: TTKAKYKTPTF
B5: PLD2_Y573_T577I_YF (peptide)
chain: TTKAKYKTPIF
B6: PLD2_Y578_T577I_YF (peptide)
chain: FKTPIYPFLLP
B7: PLEKHA2_Y185_I186N (peptide)
chain: RRSQSYNPTSG
B8: PLD2_Y169_YF (peptide)
chain: KFLENYLNRLL
B9: PLK3_Y615 (peptide)
chain: RSACTYLASHL
B10: PLD2_Y578_T577I (peptide)
chain: YKTPIYPYLLP
B11: PLD2_Y578_YF (peptide)
chain: FKTPTYPFLLP
B12: PLEKHA7_Y243_L241I (peptide)
chain: MRAIIYNSSTA
B13: PLD2_Y578 (peptide)
chain: YKTPTYPYLLP
B14: PLD2_Y169_R172C_YF (peptide)
chain: KFLENYLNCLL
B15: PLEC_Y2971_R2969H (peptide)
chain: AYRHGYFDEEM
B16: PLD2_Y580_YF (peptide)
chain: TPTFPYLLPKS
B17: PLEC_Y2971_R2969H_YF (peptide)
chain: AFRHGYFDEEM
B18: PLD2_Y580_T577I (peptide)
chain: TPIYPYLLPKS
B19: PLD2_Y580_T577I_YF (peptide)
chain: TPIFPYLLPKS

Molecular target: SHP2 C-SH2 domain E139D
Assay: enrichment score (SH2-bound / input frequency) (ratio); bacterial display of known human phosphotyrosine sites (pTyr-Var adds point mutants) read by sequencing; higher = stronger binding; tyrosines were phosphorylated by kinases first
Conditions: peptide library: pTyr-Var
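Note: displayed peptides selected on beads carrying the immobilized SH2 domain, with library peptides lacking any tyrosine serving as negative controls.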

Binder	enrichment score
B1	inactive: 0.973
B2	inactive: 1.04
B3	inactive: 0.403
B4	inactive: 0.664
B5	inactive: 1.17
B6	inactive: 1.22
B7	inactive: 0.431
B8	active: 4.22
B9	inactive: 1.24
B10	inactive: 1.34
B11	inactive: 1.21
B12	inactive: 0.896
B13	inactive: 1.15
B14	active: 3.84
B15	inactive: 1.02
B16	inactive: 1.52
B17	inactive: 1.07
B18	inactive: 1.14
B19	inactive: 1.45

Molecular target: SHP2 C-SH2 domain wild-type
Assay: as above
Conditions: peptide library: pTyr-Var

Binder	enrichment score
B1	inactive: 0.795
B2	inactive: 1.24
B3	inactive: 0.538
B4	inactive: 0.707
B5	inactive: 0.979
B6	inactive: 1.43
B7	inactive: 0.274
B8	active: 3.8
B9	inactive: 0.951
B10	inactive: 1.3
B11	inactive: 1.1
B12	inactive: 1.01
B13	inactive: 0.915
B14	active: 3.46
B15	inactive: 0.726
B16	inactive: 0.865
B17	inactive: 0.726
B18	inactive: 1.12
B19	inactive: 0.882

Molecular target: SHP2 N-SH2 domain L43F
Assay: as above
Conditions: peptide library: pTyr-Var

Binder	enrichment score
B1	inactive: 0.728
B2	inactive: 1.63
B3	inactive: 0.371
B4	inactive: 0.718
B5	inactive: 1.09
B6	inactive: 1.61
B7	inactive: 0.153
B8	active: 4.08
B9	inactive: 1.13
B10	inactive: 1.29
B11	inactive: 1.2
B12	inactive: 1.2
B13	inactive: 1.1
B14	active: 3.8
B15	inactive: 0.801
B16	inactive: 0.996
B17	inactive: 1.05
B18	inactive: 1.02
B19	inactive: 0.623

Molecular target: SHP2 N-SH2 domain T42A
Assay: as above
Conditions: peptide library: pTyr-Var

Binder	enrichment score
B1	inactive: 0.714
B2	inactive: 1.03
B3	inactive: 0.353
B4	inactive: 0.744
B5	inactive: 0.85
B6	inactive: 1.62
B7	inactive: 0.302
B8	active: 3.65
B9	inactive: 0.868
B10	inactive: 1.01
B11	inactive: 1.28
B12	inactive: 0.751
B13	inactive: 1.05
B14	inactive: 2.78
B15	inactive: 0.648
B16	inactive: 1.09
B17	inactive: 0.662
B18	inactive: 0.862
B19	inactive: 1.3

Molecular target: SHP2 N-SH2 domain T52S
Assay: as above
Conditions: peptide library: pTyr-Var

Binder	enrichment score
B1	inactive: 0.726
B2	inactive: 1.4
B3	inactive: 0.237
B4	inactive: 0.87
B5	inactive: 1.2
B6	inactive: 1.47
B7	inactive: 0.0967
B8	active: 3.96
B9	inactive: 0.922
B10	inactive: 1.1
B11	inactive: 1.18
B12	inactive: 1.05
B13	inactive: 1.38
B14	inactive: 3.16
B15	inactive: 0.614
B16	inactive: 1.07
B17	inactive: 0.827
B18	inactive: 1.05
B19	inactive: 1.35

Molecular target: SHP2 N-SH2 domain wild-type
Assay: as above
Conditions: peptide library: pTyr-Var

Binder	enrichment score
B1	inactive: 0.625
B2	inactive: 1.29
B3	inactive: 0.369
B4	inactive: 1.18
B5	inactive: 0.956
B6	inactive: 1.48
B7	inactive: 0.404
B8	active: 3.69
B9	inactive: 1.55
B10	inactive: 1.23
B11	inactive: 1.02
B12	inactive: 0.936
B13	inactive: 1.04
B14	inactive: 3.15
B15	inactive: 0.694
B16	inactive: 1.13
B17	inactive: 1.02
B18	inactive: 0.91
B19	inactive: 1
